Among all 350,000 compounds or so, about 260 (0.074%) were called active. The inconclusive results got no clear call from the source; some entries with a clear call stand among them for comparison. Calls come from the whole dose curve; as a rule, active = well fitted inhibition curve with a large enough effect; inconclusive = small, poorly fitted or top-dose-only effect; inactive = no such curve, though single readings can be large or run the other way. Potencies of inconclusive entries are doubtful fits and often do not repeat.
target: Ferritin light chain (Equus caballus) (UniProt P02791); test: qHTS Assay for Identification of Novel General Anesthetics; details: apoferritin/1-aminoanthracene competitive binding, fluorescence; series mostly up to 77.5 µM; note: nearly all actives have a fitted effect of over 20% in size
Outline: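 Horse-spleen apoferritin (10 uM) in 50% saturated 1-aminoanthracene in PBS was incubated 10 min at room temperature with compound. Fluorescence (ex 380, em 535 nm) was normalized to free and bound 1-AMA, with concentration-response fitted by a four-parameter Hill equation.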
Potency is the fitted concentration of half-maximal effect; tags give direction and shape of the fitted curve.

UniProt P02791, sequence (P02791 whole entry, looked up): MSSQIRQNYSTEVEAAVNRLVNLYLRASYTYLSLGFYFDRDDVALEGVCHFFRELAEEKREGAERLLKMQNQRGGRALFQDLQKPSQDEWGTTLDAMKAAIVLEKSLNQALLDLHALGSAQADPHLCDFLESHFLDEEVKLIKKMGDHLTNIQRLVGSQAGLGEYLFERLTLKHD

| SMILES | Potency |
| --- | --- |
| Cc1ccc(NC(=O)C2Cc3ccccc3C(=O)O2)cc1 (stereo not drawn) | inactive |
| COc1ccc(S(=O)(=O)N2CCOCC2)cc1NC(=O)COC(=O)c1ccc(C)s1 | inconclusive: 28.2 µM [inhibitor, partial curve] |
| OCCCn1c(-c2ccc(F)cc2)csc1=Nc1ccc(F)cc1 | inactive |
| CCOc1ccc(/C=N/NC(=O)NC23CC4CC(CC(C4)C2)C3)cc1O | inconclusive: 31.6 µM [inhibitor, partial curve] |
| Cc1ccc(-n2cc(CNCCc3ncc(C)[nH]3)c(-c3ccc(F)cc3)n2)cc1 | inconclusive: 39.8 µM [inhibitor, partial curve] |
| CCn1c(SC)nnc1-c1c[nH]c2ccccc12 | inconclusive: 28.2 µM [inhibitor, single point] |
| Cn1c(SCc2ccccc2)nnc1-c1c[nH]c2ccccc12 | inactive |
| O=C(NC(=S)Nc1ccc2c(c1)OCO2)c1ccccc1 | inactive |
| COc1cc(C)ccc1S(=O)(=O)N1CCCCCC1 | inconclusive: 25.1 µM [inhibitor, partial curve] |
| C/C(CC(C)(C)C1CCCCC1)=N\NC(N)=S | inconclusive: 17.8 µM [inhibitor, partial curve] |
| O=C(CN1CCN(C(=O)c2ccccc2)CC1)Nc1ccc(Cl)cc1F | inactive |
| Cc1ccc(CC(=O)O/N=C(\N)Cc2ccc([N+](=O)[O-])cc2)cc1 | inconclusive: 28.2 µM [inhibitor, single point] |
| CC(C)C(=O)Nc1nc2c(s1)CC(C(C)(C)C)CC2 (stereo not drawn) | inconclusive: 8.91 µM [inhibitor, partial curve] |
| O=S(=O)(c1ccc(Cl)s1)N1CCN(C/C=C/c2ccccc2)CC1 | inconclusive: 0.316 µM [inhibitor, full curve] |
| CC(=O)c1ccc(-n2c(CCC(=O)O)ccc2-c2cccs2)cc1 | inconclusive: 44.7 µM [inhibitor, single point] |
| COc1ccccc1CC(=O)NC1CCC(C)CC1 (stereo not drawn) | inconclusive: 17.8 µM [inhibitor, partial curve] |
| O=C(c1cc(-c2ccc(Cl)cc2Cl)on1)N1CCN(C(=O)c2ccco2)CC1 | inconclusive: 12.6 µM [inhibitor, partial curve] |
| COc1cc(C(c2c(C)[nH][nH]c2=O)c2c(C)[nH][nH]c2=O)ccc1OC(=O)c1cccc([N+](=O)[O-])c1 | inconclusive: 17.8 µM [inhibitor, partial curve] |
| COc1cc2oc(=O)cc(-c3ccc(-c4ccc(OC(F)(F)F)cc4)cc3)c2c(OC)c1OC | inconclusive: 56.2 µM [inhibitor, single point] |
| Cc1nn(C(=O)c2cccnc2)c(C)c1C | inconclusive: 56.2 µM [inhibitor, single point] |
| Cc1ccc(CSc2nnc(-c3ccco3)o2)cc1 | inconclusive: 50.1 µM [inhibitor, partial curve] |
| COCCn1c(-c2ccc(OC(F)(F)C(F)C(F)(F)F)cc2)nc2c1c(=O)[nH]c(=O)n2CC(C)C (stereo not drawn) | inconclusive: 7.08 µM [inhibitor, full curve] |
| CCOc1nc(SCCOc2ccccc2)nc(N(C)C)n1 | inactive |
| Cc1ccccc1-c1cc(-c2ccccc2O)n[nH]1 | inconclusive: 44.7 µM [inhibitor, single point] |
| CC(=O)Nc1ccc(S(=O)(=O)N2CCN=C2SCc2ccc([N+](=O)[O-])cc2)cc1 | inconclusive: 12.6 µM [inhibitor, partial curve] |

| SMILES | Potency |
| --- | --- |
| COc1ccccc1CC(=O)O/N=C(\N)c1cccc([N+](=O)[O-])c1 | inconclusive: 20 µM [inhibitor, partial curve] |
| CC(CNc1ccc([N+](=O)[O-])c2cccnc12)Nc1c([N+](=O)[O-])cc(C(F)(F)F)cc1[N+](=O)[O-] (stereo not drawn) | inconclusive: 20 µM [inhibitor, partial curve] |
| CCOc1ccccc1NC(=O)C(=O)/C=C(\O)c1cc(OC)ccc1OC | inactive |
| COc1cc(C(=O)Nc2ccc3nc(N4CCN(C)CC4)cc(C)c3c2)cc(OC)c1OC | inactive |
| Cc1cc(=O)[nH]c(SCCOc2ccc(OC(C)C)cc2)n1 | inconclusive: 31.6 µM [inhibitor, partial curve] |
| Cc1c(NC(=O)C(C)(C)Oc2ccc(Cl)cc2)cccc1-c1nc2ccccc2o1 | inactive |
| COc1ccc(OC)c(-n2c3c(cc(-c4nc(-c5ccc(Cl)cc5)cs4)c2=O)C(=O)CC(C)(C)C3)c1 | inactive |
| CCCNC(=O)CN1C(=O)COc2ccc(S(=O)(=O)N3CCC(C)CC3)cc21 | inactive |
| O=C(c1ccccc1)c1c[nH]c(C(=O)C(Cl)(Cl)Cl)c1 | inactive |
| CC(=O)Nc1cc[n+](C(C)C(=O)c2ccc(Br)cc2)cc1 (stereo not drawn) | inactive |
| CCOC(=O)CSc1nc(C(C)C)nc2ccccc12 | inactive |
| COc1ccc(C2CN=NC23CCCc2ccccc2C3=O)cc1 (stereo not drawn) | inconclusive: 22.4 µM [inhibitor, partial curve] |
| CC[N+]1=C(C)C(C)(C)c2cc(C)ccc21 | inactive |
| O=C(N/N=C1\CCCCc2ccccc21)c1ccccn1 | inconclusive: 28.2 µM [inhibitor, partial curve] |
| NC(=O)CC(NC(=O)c1ccc(Br)cc1)c1ccc(N2CCCCCCC2)c([N+](=O)[O-])c1 (stereo not drawn) | inconclusive: 31.6 µM [inhibitor, partial curve] |
| N#CC1=C(N)SC(N)=C(C#N)C1c1ccc(C(F)(F)F)cc1 | inactive |
| Cc1ccccc1-c1nc(C(=O)NCC2CCCO2)cc2c1[nH]c1ccccc12 (stereo not drawn) | inactive |
| O=C(COc1ccc2ccccc2c1Br)N1CCCCC1 | inconclusive: 39.8 µM [inhibitor, single point] |
| CCC1(C)Cc2c(c(=O)n(-c3ccccc3)c3ncnc(N)c23)CO1 (stereo not drawn) | inactive |
| CC1CCCC(NC(=O)COC(=O)CCC2CCCC2)C1C (stereo not drawn) | inconclusive: 39.8 µM [inhibitor, partial curve] |
| COc1cc(N)c(Cc2nccc3cc(OC)c(OC)cc23)cc1OC | inactive |
| Cn1c(=NC(=O)C2CCN(S(=O)(=O)c3cccs3)CC2)sc2ccccc21 | inactive |
| CCOc1ccc(N2C(=O)/C(=C/c3ccccc3OCC(=O)OC)N(CC(=O)OC)C2=S)cc1 | inconclusive: 25.1 µM [inhibitor, partial curve] |
| Cc1ccc(SCCC(=O)N/N=C/c2ccncc2)cc1 | inconclusive: 28.2 µM [inhibitor, single point] |
| COc1ccc(C(=O)NCc2ccc(-n3cccc3)cc2)cc1OC | inconclusive: 35.5 µM [inhibitor, single point] |

| SMILES | Potency |
| --- | --- |
| Cc1ccc(NC(=S)/C(=C(\[O-])c2ccc(C)c([N+](=O)[O-])c2)[n+]2ccccc2)cc1C | inconclusive: 31.6 µM [inhibitor, partial curve] |
| O=C(Cn1cc(C(=O)c2ccccc2)c(=O)c2cc3c(cc21)OCCO3)Nc1ccc(F)c(F)c1 | inactive |
| CCOc1ccccc1CNS(=O)(=O)c1cc2c(cc1C)NC(=O)CO2 | inconclusive: 10 µM [inhibitor, partial curve] |
| CCC(C)(C)C1CCc2c(sc(N)c2C(N)=O)C1 (stereo not drawn) | inconclusive: 50.1 µM [inhibitor, single point] |
| CCOC(=O)C(=CNc1cccc(N)n1)C(=O)OCC | inactive |
| COc1ccc(NC(=O)CC2C(=O)N(c3cccc(OC)c3)C(=O)N2CCC2=CCCCC2)cc1 (stereo not drawn) | inactive |
| O=C(c1ccc(Br)o1)N(c1ccc(Br)cc1)C1C=CS(=O)(=O)C1 (stereo not drawn) | inactive |
| CCOc1ccc(C(=O)NCc2ccco2)cc1 | inactive |
| Cc1nn(C(=O)CCCn2cc([N+](=O)[O-])cn2)c(C)c1Cl | inconclusive: 28.2 µM [inhibitor, single point] |
| O=C(O/N=C\c1ccc(N2CCOCC2)c([N+](=O)[O-])c1)c1ccccc1Cl | inconclusive: 25.1 µM [inhibitor, partial curve] |
| COc1ccccc1-c1nnc(SCc2ccccn2)n1C | inactive |
| C=CCNc1nc(-c2ccc(Cl)cc2)cs1 | inconclusive: 28.2 µM [inhibitor, partial curve] |
| S=c1[nH]ncn1/N=C/c1cccc(Oc2ccccc2)c1 | inconclusive: 31.6 µM [inhibitor, partial curve] |
| COc1ccc(C(=O)Nc2ccc(OC)c([N+](=O)[O-])c2)cc1Br | inconclusive: 39.8 µM [inhibitor, partial curve] |
| Nc1ccccc1Oc1ccc2ccccc2c1 | inconclusive: 7.94 µM [inhibitor, partial curve] |
| O=[N+]([O-])c1cc(C(F)(F)F)ccc1NCCCCNS(=O)(=O)c1ccc(Cl)cc1 | inactive |
| C/C(=N\Nc1ncc(Cl)cc1Cl)c1ccc(N2CCOCC2)cc1 | inconclusive: 22.4 µM [inhibitor, partial curve] |
| Cc1cc(Br)cnc1NC(=S)Nc1ccc(F)cc1F | inactive |
| COCCCn1c(=NC(=O)c2ccccc2)c(C#N)cc2c(=O)n3cccc(C)c3nc21 | inactive |
| COC(=O)CNC(=O)CN1C(=O)N(c2cccc(Cl)c2)C(N(O)C(=O)Nc2cccc(Cl)c2)C1(C)C (stereo not drawn) | inconclusive: 25.1 µM [inhibitor, partial curve] |
| O=C1CCCCC2CCCCN12 (stereo not drawn) | inconclusive: 63.1 µM [inhibitor, partial curve] |
| CCCNC(=O)c1cnn(-c2ccc(C)c(C)c2)c1C1CCN(C(=O)OC(C)(C)C)CC1 | inconclusive: 11.2 µM [inhibitor, partial curve] |
| COc1ccc(C(=O)OCC(=O)NC(=O)NC2CCCC2)c(O)c1 | inconclusive: 11.2 µM [inhibitor, partial curve] |

Source: PubChem BioAssay AID485281 (National Center for Advancing Translational Sciences (NCATS), 2010)
